The campaign covered roughly 410,000 compounds. About 7,200 (1.8%) were called active. The inconclusive results got no clear call from the source; some entries with a clear call stand among them for comparison. Calls come from the whole dose curve; as a rule, active = well fitted activation curve with a large enough effect; inconclusive = small, poorly fitted or top-dose-only effect, or another doubt; inactive = no such curve, though single readings can be large or run the other way. Potencies of inconclusive entries are left out as doubtful fits.
Assay: qHTS of TDP-43 Inhibitors; note: nearly all actives have a fitted effect of over 50% in size; for growth rescue (activation): % of control where 0% means no effect
Conditions: TDP-43 expressing yeast growth rescue, BacTiter-Glo, 24 h; growth rescue (activation): at 46.1 µM (top of the series) unless noted
In short: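 Growth rescue of TDP-43-toxic yeast measured as ATP luminescence (BacTiter-Glo). Cells grown to mid-log in raffinose, induced in galactose at OD600=0.02, exposed to compound 24 hr at 30 deg C.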
Potency is the fitted concentration of half-maximal effect; tags give direction and shape of the fitted curve.

Row | SMILES | growth rescue (activation) | Potency
1 | CC(C)/C=C/C(=O)N1CCCC(N2CCN(c3ccccc3F)CC2)C1 (stereo not drawn) | inactive: -2.89% | –
2 | CCc1c(C)c2c(C)nn(-c3ccccc3)c2oc1=O | – | active: 25.1 µM
3 | O=C(NCc1ccc(F)cc1)c1cnc2n(c1=O)CCS2 | – | inconclusive [activator, partial curve]
4 | S=C(NCCc1ccccc1)N/N=C/c1c(Cl)cccc1Cl | – | inconclusive [activator, partial curve, poor fit]
5 | COc1ccc(C(=O)O/N=C(\N)c2ccccc2)cc1OC | – | inconclusive [activator, single point]
6 | Cc1ccc(C2=NN(C(=O)CNCCO)C(c3cccs3)C2)cc1 (stereo not drawn) | – | inconclusive [activator, single point]
7 | O=C(OCN1C(=O)c2ccccc2C1=O)c1cccc(S(=O)(=O)N2CCOCC2)c1 | – | inconclusive [activator, partial curve, poor fit]
8 | Cc1ccc(S(=O)(=O)c2cnc(SCC(=O)Nc3cccc(Cl)c3)nc2N)cc1C | – | inconclusive [activator, full curve, poor fit]
9 | O=C1CCC(/C=C/c2ccccc2)=NN1Cc1ccc(Cl)c(Cl)c1 | – | inconclusive [activator, single point]
10 | Cc1ccc(CNc2oc(-c3ccco3)nc2C#N)cc1 | – | inconclusive [activator, single point]
11 | COC1=CC(=O)OC(c2cccc(Cl)c2)C1 (stereo not drawn) | – | inconclusive [activator, single point]
12 | CCOc1ccc(NC(=O)CN2CCN(S(=O)(=O)c3ccc(Cl)cc3)CC2)cc1 | – | inconclusive [activator, full curve, poor fit]
13 | CCCCCCCNC1=CC(=O)CC(c2ccccc2)C1 (stereo not drawn) | – | active: 20 µM
14 | Cc1[nH]nc2ncc(C(=O)c3ccccc3O)cc12 | inactive: 19.2% | –
15 | CCOC(=O)CSc1c(-c2cccs2)[nH]c2ccccc12 | – | active: 15.8 µM
16 | c1nc(N2CCC3(CC2)OCCO3)c2c3c(sc2n1)CCCC3 | – | active: 22.4 µM
17 | Cc1ccccc1-n1nnnc1SCc1ncc(-c2ccccc2)o1 | – | inconclusive [activator, partial curve, poor fit]
18 | O=C(Cc1ccc(Br)cc1)N1CCN(c2ccc(F)cc2)CC1 | – | inconclusive [activator, partial curve]
19 | COCCNC(=O)/C(C#N)=C/c1ccc(OC(=O)c2cccs2)c(OC)c1 | – | inconclusive [activator, single point]
20 | Cc1ccn(CC(=O)N2CCCC(N3CCN(c4cccc(Cl)c4)CC3)C2)n1 (stereo not drawn) | inactive: 11.2% | –
21 | Cc1ccc(CNC(=O)Cc2ccc(NC3=NC4CS(=O)(=O)CC4S3)cc2)cc1 (stereo not drawn) | – | inconclusive [activator, single point]
22 | O=C1C=C(c2ccccc2C(F)(F)F)C[C@@H](c2ccc3c(c2)OCO3)C1 | – | active: 17.8 µM
23 | CC(Cc1ccccc1)NC(=O)/C=C/c1ccc([N+](=O)[O-])cc1 (stereo not drawn) | – | inconclusive [activator, partial curve]

Row | SMILES | growth rescue (activation) | Potency
24 | COc1ccc(-c2cc(=O)oc3c(C)c(OC(C)C(C)=O)ccc23)cc1 (stereo not drawn) | inactive: 20.7% | –
25 | CC(C)(C)C(=O)NC(=S)NNC(=O)c1sc2ccccc2c1Cl | inconclusive: -52.4% [activator] | –
26 | O=C(c1ccccc1Br)N(Cc1ccco1)C1CCS(=O)(=O)C1 (stereo not drawn) | inactive: -13.8% | –
27 | CCOC(=O)CSc1nc2c(c(=O)n(C)c(=O)n2C)n1Cc1ccccc1F | – | inconclusive [activator, partial curve]
28 | COc1cc(O)sc1C=Nc1ccc(Cl)cc1 | – | inconclusive [activator, full curve]
29 | O=c1onc(-c2cccs2)n1Cc1ccccc1 | – | active: 12.6 µM
30 | S=C(NCCc1ccccc1)Nc1ncccn1 | – | inconclusive [activator, single point]
31 | CCC(CC)c1nnc(NC(=O)c2c(C)nn(Cc3ccccc3Cl)c2C)s1 | – | inconclusive [activator, partial curve]
32 | COc1ccc(CNC(=O)c2ccc(S(=O)(=O)N3CCOCC3)cc2)cc1 | inactive: -19.1% | –
33 | COc1cccc(Cn2c(=O)n(CC3CCC(C(=O)N4CCCCC4)CC3)c(=O)c3sccc32)c1 (stereo not drawn) | – | inconclusive [activator, single point]
34 | CCc1c(C)c2c(C)nn(-c3ccccc3)c2[nH]c1=O | – | inconclusive [activator, partial curve]
35 | COc1cc(OC)cc(C2=NC3(CCC(C)CC3)NC2=S)c1 (stereo not drawn) | – | inconclusive [activator, single point]
36 | CCOC(=O)N1CCN(c2ncnc3scc(-c4ccccc4)c23)CC1 | – | inconclusive [activator, single point]
37 | O=C(COC(=O)CN1C(=O)c2ccccc2C1=O)Nc1ncc(Cl)cc1Cl | – | inconclusive [activator, single point]
38 | COCCn1c(=NC(=O)c2cccs2)sc2cc(NC(C)=O)ccc21 | – | inconclusive [activator, partial curve]
39 | COc1cc2c(cc1OC)CN(C(=O)/C=C/c1ccccc1[N+](=O)[O-])CC2 | – | inconclusive [activator, single point]
40 | O=C(NCCSCc1ccc(Cl)cc1)c1cccs1 | – | inconclusive [activator, partial curve]
41 | CCc1cc2c(SCC#N)ncnc2s1 | – | inconclusive [activator, full curve]
42 | Cc1ccc(Cl)cc1N1CCN(C(=O)C2CCN(S(=O)(=O)c3c(C)nn(C)c3C)CC2)CC1 | – | inconclusive [activator, full curve, poor fit]
43 | O=Cc1c(NCc2cccc(F)c2)c2ccccc2[nH]c1=O | – | inconclusive [activator, partial curve]
44 | Cc1cc(Nc2nc3ccccc3nc2Cl)n(-c2ccccc2C)n1 | – | inconclusive [activator, single point]
45 | CCCS(=O)(=O)Nc1cc(C(F)(F)F)ccc1OCCOC | – | inconclusive [activator, partial curve]
46 | Cc1c(NC(=O)c2cc(-c3ccc(Cl)s3)nc3ccccc23)c(=O)n(-c2ccccc2)n1C | – | inconclusive [activator, partial curve]

Row | SMILES | growth rescue (activation) | Potency
47 | Cc1ncoc1C(=O)N1CCc2c([nH]c3ccccc23)C1C1CCCCC1 (stereo not drawn) | – | inconclusive [activator, single point]
48 | CCCCn1c(N)c(N(CCOC)C(=O)c2ccc(N3C(=O)c4ccccc4C3=O)cc2)c(=O)[nH]c1=O | – | inconclusive [activator, single point]
49 | Cc1ccc(NC(=S)Nc2cccc3ccccc23)cc1F | – | inconclusive [activator, partial curve]
50 | O=C(COc1ccccc1)NCc1ccc2c(c1)CCN2C(=O)c1ccc(F)cc1 | – | inconclusive [activator, single point]
51 | Oc1cc(-n2cccn2)c(O)cc1-n1cccn1 | – | inconclusive [activator, partial curve]
52 | Cc1ccc(-n2ncc3c(N4CCCCCC4)ncnc32)cc1 | – | inconclusive [activator, single point]
53 | Cc1ccc(C(=O)OCC(=O)NC2CCCCCCC2)cc1C | inactive: 17.2% | –
54 | O=C(COC(=O)Cc1ccc(Br)cc1)NC12CC3CC(CC(C3)C1)C2 | – | inconclusive [activator, single point]
55 | Cc1cc(C(=O)COC(=O)C2CC2)c(C)n1-c1ccc(F)cc1 | – | inconclusive [activator, single point]
56 | Cn1nc(-c2ccccc2)cc1NC(=O)c1ccc(Cl)cc1 | – | inconclusive [activator, partial curve]
57 | COc1cccc(/C=N/Nc2cc(C)nc(-c3ccccc3O)n2)c1O | – | inconclusive [activator, partial curve]
58 | COc1cc(NC(=O)CCn2c(-c3ccccc3)cc(C(C)=O)c2C)cc(OC)c1 | inactive: 18.3% | –
59 | Cc1ccc(-n2ncc3c(NCCCOC(C)C)ncnc32)c(C)c1 | – | inconclusive [activator, partial curve]
60 | O=C(NCc1ccc(Cl)cc1)[C@@H]1CCCN1S(=O)(=O)c1ccc(Cl)cc1 | – | inconclusive [activator, partial curve]
61 | CN(C(=O)C1CCCN(c2ncnc3c2nc2n3CCCCC2)C1)c1ccccc1F (stereo not drawn) | inactive: 29.4% | –
62 | O=C(c1ccco1)N1CCN(Cc2ccccc2F)CC1 | inactive: -8.26% | –
63 | O=C(O)C1CCCCC1C(=O)Nc1cccc(Cl)c1Cl (stereo not drawn) | – | inconclusive [activator, partial curve]
64 | COc1cc2c(OC(C)=O)c3c(c(-c4ccc5c(c4)OCO5)c2cc1OC)C(=O)OC3 | inactive: 9.32% | –
65 | C=C[C@H](CC(C)C)N(Cc1ccccc1)S(=O)(=O)N(Cc1ccccc1)[C@@H](C=C)CC(C)C | – | inconclusive [activator, partial curve]
66 | c1ccc(-n2ncc3c(NC4CCCC4)ncnc32)cc1 | – | inconclusive [activator, partial curve]
67 | CC1CCN(C2CC(=O)N(c3ccc(Br)cc3Br)C2=O)CC1 (stereo not drawn) | inconclusive: -93.9% [activator] | –
68 | Cc1ccc(N/C=C(\C#N)c2ccc(OCCCF)cc2)cc1 | – | inconclusive [activator, partial curve]

— PubChem BioAssay AID652104 (National Center for Advancing Translational Sciences (NCATS), 2013)
